Measured values from PubChem BioAssay AID651820 (National Center for Advancing Translational Sciences (NCATS), 2012).
About 12,000 (3.5%) of roughly 340,000 compounds were called active. Inconclusive results, whose numbers are uncertain, are shown with a selection of clear calls. Calls follow the shape of the dose curve; as a rule, active = well fitted inhibition curve with a large enough effect; inconclusive = small, poorly fitted or top-dose-only effect, or another doubt; inactive = no such curve, though single readings can be large or run the other way. No potency is given beside an inconclusive call; the fits are too rough.
% is scaled to controls: 0 for no effect and ±100 for the full control effect; potency is read from the fitted curve at half-maximal effect; tags tell the direction and shape of the fitted curve.

Experiment: qHTS Assay for Inhibitors of Hepatitis C Virus (HCV)
Conditions: Huh7.5.1 HCVcc-Cre (HCVcc is cell-culture hepatitis C virus) infection, luciferase reporter, 44 h; activity change, negative = inhibition: at 41.8 µM (top of the series)
Outline: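 1,000 cells/well; 4 h culture; + compound; + HCVcc-Cre (~0.5 moi); 44 h; luciferase substrate, RT 15 min; read 15 sec.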
In the case of `CCOc1ccc(C(=O)NCC(=O)Nc2ccc(N3CCOCC3)cc2)cc1OCC`, the “activity change, negative = inhibition” value is reported as inactive: 9.59%. In the case of `COc1ccc(N2CCC(CNC(=S)Nc3cccc(OC)c3)C2)cc1` (centres undefined), the “activity change, negative = inhibition” value is reported as inactive: -5.59%. For `CN(C(=O)/C=C/c1ccc([N+](=O)[O-])s1)c1ccccc1`, the Potency was active: 22.4 µM. For `O=C(Nc1ccncc1)C1CCCN(S(=O)(=O)c2cccc3cccnc23)C1` (centres undefined), the Potency was inconclusive [inhibitor, partial curve]. In the case of `COc1cc2ccccc2cc1C(=O)Nc1ccc(N2CCOCC2)cc1`, the Potency is reported as inconclusive [inhibitor, partial curve]. For `Cc1nn(-c2ccc3ccccc3c2)c(=O)c2ccccc12`, the Potency was inconclusive [inhibitor, single point]. For `O=[N+]([O-])c1ccccc1/C=C/c1ccc2ccccc2n1`, the Potency was inconclusive [inhibitor, partial curve, poor fit]. In the case of `O=C(O)C1Nc2c(Cl)cc(Cl)cc2C2C=CCC12` (centres undefined), the “activity change, negative = inhibition” value is reported as inactive: 3.09%. With `CC(Oc1cc2oc(=O)c3c(c2cc1Cl)CCC3)C(=O)NC1CC(C)(C)NC(C)(C)C1` (centres undefined) the Potency was inconclusive [inhibitor, partial curve]. With `CN(C)C(=O)c1c2c(nc3ccccc13)-c1ccccc1CC2` the Potency was inconclusive [inhibitor, partial curve, poor fit]. With `COc1cccc(-c2cc(C(=O)N/N=C/c3ccc(OC)c(COC(C)=O)c3)c3ccccc3n2)c1` the Potency was inconclusive [inhibitor, single point]. In the case of `c1ccc(CCc2ccccc2-c2nc(-c3cccnc3)no2)cc1`, the Potency is reported as active: 7.08 µM. For `COC(=O)c1ccccc1NC(=O)CNc1ccc(F)c(S(=O)(=O)N2CCOCC2)c1`, the Potency was inconclusive [inhibitor, single point]. In the case of `Cc1ccc(Nc2nc(CSc3nnc(-c4ccccc4C)n3C)cs2)cc1`, the Potency is reported as inconclusive [inhibitor, single point]. In the case of `O=C(c1cccs1)c1cn(CC(=O)N2CCc3ccccc3C2)c2ccccc12`, the Potency is reported as inconclusive [inhibitor, partial curve]. With `COc1ccccc1-c1noc2ncnc(Nc3ccccc3C)c12` the “activity change, negative = inhibition” value was inactive: -29%. With `CC(O)[C@H]1CNC(=O)C(=O)N1CCc1cc(C(F)(F)F)cc(C(F)(F)F)c1` (some centres undefined) the “activity change, negative = inhibition” value was inactive: 5.14%. In the case of `CCOC(=O)c1cc(-c2ccc(N3CCOCC3)cc2)nn1-c1ccc(F)cc1F`, the Potency is reported as active: 11.2 µM. For `COc1ccc(CNC(=O)c2csc(Cc3ccc(OC)cc3)n2)cc1`, the Potency was inconclusive [inhibitor, single point]. In the case of `CCOc1ccc(C(=O)NC2CC(=O)N(c3ccc4c(c3)OCCO4)C2)cc1` (centres undefined), the Potency is reported as inconclusive [inhibitor, single point]. With `Cn1c(SCC(=O)Nc2cccc3ccccc23)nc(O)cc1=O` the “activity change, negative = inhibition” value was inactive: 8.65%. In the case of `Cc1ccc(S(=O)(=O)N2CCN(c3ccnc4cc(Cl)ccc34)CC2)cc1`, the Potency is reported as inconclusive [inhibitor, single point]. With `CSc1ccc(CN(C)C(=O)c2cccc(S(=O)(=O)N3CCN(Cc4ccccc4)CC3)c2)cc1` the Potency was inconclusive [inhibitor, full curve]. For `CC1=CCC2C(=O)N(CCc3c[nH]c4ccccc34)C(=O)C2C1` (centres undefined), the “activity change, negative = inhibition” value was inactive: -3.17%. With `NC(=O)CSc1nc(-c2ccccc2)nc2ccccc12` the Potency was inconclusive [inhibitor, single point]. For `O=C1CCCN2N=C(SCC(=O)Nc3ccc(OC(F)(F)F)cc3)SC2=N1`, the “activity change, negative = inhibition” value was inactive: 24.8%. For `O=C(O)c1cc(S(=O)(=O)Nc2ccc3c(c2)OCCO3)c(Cl)cc1Cl`, the Potency was inconclusive [inhibitor, single point]. With `CCOC(=O)c1c(NC(=O)CC)sc2c1CCN(Cc1ccccc1)C2` the Potency was active: 11.2 µM. With `CC(Oc1ccccc1)C(=O)N1CCN=C1SCc1ccc(F)cc1` (centres undefined) the “activity change, negative = inhibition” value was inactive: -20.2%. In the case of `O=C(Nc1cccc([N+](=O)[O-])c1)Nc1cccs1`, the Potency is reported as inconclusive [inhibitor, single point]. For `CCOC(=O)c1sc2nc(C)nc(Nc3ccccc3)c2c1C`, the Potency was inconclusive [inhibitor, single point]. With `Cc1nn(-c2ccccc2)nc1C(=O)c1c(C)[nH]n(-c2ccccc2)c1=O` the “activity change, negative = inhibition” value was inactive: 18.6%. In the case of `COc1ccc(C(c2nnnn2Cc2cccs2)N2CCN(c3ccccc3F)CC2)cc1` (centres undefined), the Potency is reported as inconclusive [inhibitor, partial curve]. For `COc1cc([N+](=O)[O-])ccc1NC(=O)C1CCCN(S(C)(=O)=O)C1` (centres undefined), the “activity change, negative = inhibition” value was inactive: 0.578%. In the case of `COc1ccc(-c2nc(CSCC(=O)NC3CCCc4ccccc43)c(C)o2)cc1OC` (centres undefined), the Potency is reported as inconclusive [inhibitor, partial curve]. For `Cc1cc(Oc2ccccc2)nc(SCC(=O)Nc2ccccc2)n1`, the Potency was inconclusive [inhibitor, partial curve]. In the case of `Cc1cc(C)cc(NS(=O)(=O)c2cnc(Cl)c(Cl)c2)c1`, the Potency is reported as active: 11.2 µM. In the case of `CCCc1cc(=O)oc2cc(C)cc(OCC(=O)Nc3cccnc3)c12`, the Potency is reported as inconclusive [inhibitor, partial curve]. For `Cc1nn(C)cc1C(C)NC(=O)c1cc(COc2cccc3cnccc23)on1` (centres undefined), the Potency was inconclusive [inhibitor, partial curve]. With `O=C(Nc1ccccc1C(F)(F)F)N1CCN(c2ccccn2)CC1` the “activity change, negative = inhibition” value was inactive: 13%. For `COC(=O)c1cc(NC(=O)CN(c2ccccc2OC)S(=O)(=O)c2ccccc2)ccc1Cl`, the Potency was inconclusive [inhibitor, partial curve]. For `O=C(Nc1ccc(F)cc1F)N1CCN(C/C=C/c2ccccc2)CC1`, the Potency was inconclusive [inhibitor, partial curve]. With `Cc1c(C(=O)Nc2ccccn2)oc2c(Cl)cccc12` the Potency was inconclusive [inhibitor, single point]. For `COc1cccc(NS(=O)(=O)c2ccc3c(c2)NC(=O)C(C)S3)c1` (centres undefined), the Potency was inconclusive [inhibitor, partial curve, poor fit]. In the case of `Cc1ccc(C(=O)c2nccn2C)cc1C`, the “activity change, negative = inhibition” value is reported as inactive: 15.2%. For `COc1ccccc1N1CCN(CCCNC(=O)C2CCCN(c3ncnc4c3nc3n4CCCCC3)C2)CC1` (centres undefined), the Potency was active: 12.6 µM. For `COc1ccc(Cc2noc(CN(C)Cc3cccc(-n4cccn4)c3)n2)cc1OC`, the Potency was inconclusive [inhibitor, single point]. For `CCOc1ccccc1NC(=O)Nc1ccc2c(c1)CCC2`, the Potency was active: 12.6 µM. For `CCCN1CCN(C(=O)C(C)n2nc(C)c3sc4ccccc4c3c2=O)CC1` (centres undefined), the “activity change, negative = inhibition” value was inactive: -1.07%. With `Cc1cc(C)n2nc(C(=O)NCc3ccco3)cc2n1` the “activity change, negative = inhibition” value was inactive: 7.45%. In the case of `Cc1c(C(=O)Nc2nc3ccccc3[nH]2)oc2ccc(Br)cc12`, the “activity change, negative = inhibition” value is reported as inactive: -12.6%. In the case of `O=C(NC1CCC(CC2CCC(NC(=O)C(Cl)Cl)CC2)CC1)C(Cl)Cl` (centres undefined), the “activity change, negative = inhibition” value is reported as inactive: 1.78%. In the case of `CCN(CC)c1ccc(/C=N/NC(=O)c2ccccn2)cc1`, the Potency is reported as inconclusive [inhibitor, partial curve]. With `COc1ccc(CCC(C)N2CCC(Oc3ccc(C(=O)N4CCCC4)cc3)CC2)cc1` (centres undefined) the Potency was inconclusive [inhibitor, single point]. In the case of `Cc1ccc(-n2c(SCC(=O)Nc3cccc(S(N)(=O)=O)c3)nc3ccccc32)cc1`, the Potency is reported as inconclusive [inhibitor, partial curve, poor fit]. With `CC(C)(O)c1ccc2c(c1)CCC1C(C)(C(=O)O)CCCC21C` (centres undefined) the “activity change, negative = inhibition” value was inactive: -21.7%. With `CCOCCN1CCN(C2c3ccccc3CSc3ccccc32)CC1` (centres undefined) the Potency was active: 22.4 µM. For `CN1CCc2c(sc(NC(=O)c3ccc(S(=O)(=O)N4CCCCCC4)cc3)c2C(N)=O)C1`, the Potency was inconclusive [inhibitor, partial curve]. In the case of `COc1ccc(/C=N\NC(=O)c2ccccc2[N+](=O)[O-])cc1COc1c(F)c(F)c(F)c(F)c1F`, the Potency is reported as active: 2.51 µM. For `COc1cccc(-c2nnc(SCc3nc4ccccc4[nH]3)n2N)c1`, the “activity change, negative = inhibition” value was inactive: -16.1%. In the case of `CC(=O)CCc1ccccc1`, the “activity change, negative = inhibition” value is reported as inactive: 3.79%. For `O=C(CN1C(=O)COc2ccccc21)c1ccc(Cl)cc1`, the “activity change, negative = inhibition” value was inactive: -4.8%. In the case of `C=CCn1c(N)c(C(=O)OC(C)CC)c2nc3ccccc3nc21` (centres undefined), the Potency is reported as inconclusive [inhibitor, single point]. For `C[C@]12CC[C@H]3C(CCC4(O)CC(O)CC[C@]34C=O)C1=CC[C@H]2c1ccc(=O)oc1` (some centres undefined), the “activity change, negative = inhibition” value was inactive: -16.9%. For `C=C(C)C(=O)N1CC2(CC(c3cccc(NC(=O)/C(C)=C\C)c3)=NO2)C[C@H]1C(N)=O` (some centres undefined), the “activity change, negative = inhibition” value was inactive: 33.1%. With `Cc1onc(-c2ccccc2)c1C(=O)OCCOc1ccccc1F` the Potency was inconclusive [inhibitor, partial curve]. For `CCOc1cc(N2CCOCC2)c(OCC)cc1NC(=O)C(C)Oc1ccccc1` (centres undefined), the Potency was inconclusive [inhibitor, partial curve]. For `O=C(N/N=C\c1ccc(Sc2ccccn2)o1)c1cccc(Br)c1`, the Potency was inconclusive [inhibitor, partial curve]. For `O=C(Cn1cnc2ccccc21)N1CCN(S(=O)(=O)c2ccccc2)CC1`, the Potency was inconclusive [inhibitor, full curve, poor fit]. With `CN(C)C1(c2nnnn2-c2ccc(Cl)cc2)CCCCC1` the “activity change, negative = inhibition” value was inactive: 14.2%. In the case of `O=c1c2ccccc2ccc2ccccc12`, the “activity change, negative = inhibition” value is reported as inactive: -4.34%. In the case of `COc1ccc2nc(SCC(=O)NC3CCCc4ccccc43)[nH]c2c1` (centres undefined), the Potency is reported as inconclusive [inhibitor, single point]. With `CCOc1ccc(NC(=O)c2ccc(C#CC(C)(C)O)cc2)cc1` the Potency was inconclusive [inhibitor, partial curve]. In the case of `c1ccc(-c2nnc(-c3ccccc3)nn2)cc1`, the “activity change, negative = inhibition” value is reported as inactive: 3.13%.
